These results are taken from publication PMC3562248.

No constants are given. Whether binding was seen depends on the method and setting. Binding seen in cells or lysates may run through a third protein.

Experiment [1] concerns the target T1, histone H3 N-terminal tail peptide (aa 1-21), unmodified, C-terminal biotin, P68431. The experiment in a line: pull-down; about 1 μg biotinylated histone tail peptide on streptavidin agarose beads, about 250 μg HeLa nuclear extract, 20 mM HEPES pH 7.9, 150 mM KCl, 0.1% NP-40, 3 h at 4°C; western blot; only the target purified. The note with it: remark: other sources report otherwise.

Experiment [2] has as its target T1, histone H3 N-terminal tail peptide (aa …). Briefly: pull-down; 35S-methionine-labelled in vitro translated protein (TNT reticulocyte lysate, diluted 1:10 with binding buffer) on immobilised H3 tail peptides; autoradiography; only the target purified. The settings on record: remark: other sources report otherwise.

B1: Sin3A (endogenous, HeLa), Q96ST3 1-1273 (protein)
chain: MKRRLDDQESPVYAAQQRRIPGSTEAFPHQHRVLAPAPPVYEAVSETMQSATGIQYSVTPSYQVSAMPQSSGSHGPAIAAVHSSHHHPTAVQPHGGQVVQSHAHPAPPVAPVQGQQQFQRLKVEDALSYLDQVKLQFGSQPQVYNDFLDIMKEFKSQSIDTPGVISRVSQLFKGHPDLIMGFNTFLPPGYKIEVQTNDMVNVTTPGQVHQIPTHGIQPQPQPPPQHPSQPSAQSAPAPAQPAPQPPPAKVSKPSQLQAHTPASQQTPPLPPYASPRSPPVQPHTPVTISLGTAPSLQNNQPVEFNHAINYVNKIKNRFQGQPDIYKAFLEILHTYQKEQRNAKEAGGNYTPALTEQEVYAQVARLFKNQEDLLSEFGQFLPDANSSVLLSKTTAEKVDSVRNDHGGTVKKPQLNNKPQRPSQNGCQIRRHPTGTTPPVKKKPKLLNLKDSSMADASKHGGGTESLFFDKVRKALRSAEAYENFLRCLVIFNQEVISRAELVQLVSPFLGKFPELFNWFKNFLGYKESVHLETYPKERATEGIAMEIDYASCKRLGSSYRALPKSYQQPKCTGRTPLCKEVLNDTWVSFPSWSEDSTFVSSKKTQYEEHIYRCEDERFELDVVLETNLATIRVLEAIQKKLSRLSAEEQAKFRLDNTLGGTSEVIHRKALQRIYADKAADIIDGLRKNPSIAVPIVLKRLKMKEEEWREAQRGFNKVWREQNEKYYLKSLDHQGINFKQNDTKVLRSKSLLNEIESIYDERQEQATEENAGVPVGPHLSLAYEDKQILEDAAALIIHHVKRQTGIQKEDKYKIKQIMHHFIPDLLFAQRGDLSDVEEEEEEEMDVDEATGAVKKHNGVGGSPPKSKLLFSNTAAQKLRGMDEVYNLFYVNNNWYIFMRLHQILCLRLLRICSQAERQIEEENREREWEREVLGIKRDKSDSPAIQLRLKEPMDVDVEDYYPAFLDMVRSLLDGNIDSSQYEDSLREMFTIHAYIAFTMDKLIQSIVRQLQHIVSDEICVQVTDLYLAENNNGATGGQLNTQNSRSLLESTYQRKAEQLMSDENCFKLMFIQSQGQVQLTIELLDTEEENSDDPVEAERWSDYVERYMNSDTTSPELREHLAQKPVFLPRNLRRIRKCQRGREQQEKEGKEGNSKKTMENVDSLDKLECRFKLNSYKMVYVIKSEDYMYRRTALLRAHQSHERVSKRLHQRFQAWVDKWTKEHVPREMAAETSKWLMGEGLEGLVPCTTTCDTETLHFVSINKYRVKYGTVFKAP
modifications: here or on the partner: C-terminal biotin
As to B1, the binding entry in experiment [1] is on record as “no binding”.

B2: MBD3, in vitro translated, O95983 1-291 (protein)
chain: MERKRWECPALPQGWEREEVPRRSGLSAGHRDVFYYSPSGKKFRSKPQLARYLGGSMDLSTFDFRTGKMLMSKMNKSRQRVRYDSSNQVKGKPDLNTALPVRQTASIFKQPVTKITNHPSNKVKSDPQKAVDQPRQLFWEKKLSGLNAFDIAEELVKTMDLPKGLQGVGPGCTDETLLSAIASALHTSTMPITGQLSAAVEKNPGVWLNTTQPLCKAFMVTDEDIRKQEELVQQVRKRLEEALMADMLAHVEELARDGEAPLDKACAEDDDEEDEEEEEEEPDPDPEMEHV
modifications: here or on the partner: 35S-methionine label; C-terminal biotin
B2: in experiment [2], the binding result was “no binding”.
